The list shows a part of the results, in another mix than the full data. For some assays here: At the low end of the ranking, values are background and their order means little. The list shows a part of the results. For some assays here: The exact form of the protein is not confirmed.

Assay in all cases: universal protein binding microarray (PBM)
What all share (settings): transcription factors of Arabidopsis thaliana; high values mean tight binding; most listed sequences are background and not binding sites; double strand, one strand shown

In one assay the target is T1, GST-ANAC092(1-176) (UniProt Q9FKA0).
T1 sequence: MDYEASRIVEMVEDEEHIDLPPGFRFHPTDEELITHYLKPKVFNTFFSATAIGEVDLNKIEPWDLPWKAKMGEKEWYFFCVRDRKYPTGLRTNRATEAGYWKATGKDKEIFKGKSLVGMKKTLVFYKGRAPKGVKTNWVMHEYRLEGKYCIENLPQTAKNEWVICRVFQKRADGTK

The target of the next assay is GST-NTL6(1-168) (UniProt Q9SCK6).
Chain of UniProt Q9SCK6 (Q9SCK6 1-168): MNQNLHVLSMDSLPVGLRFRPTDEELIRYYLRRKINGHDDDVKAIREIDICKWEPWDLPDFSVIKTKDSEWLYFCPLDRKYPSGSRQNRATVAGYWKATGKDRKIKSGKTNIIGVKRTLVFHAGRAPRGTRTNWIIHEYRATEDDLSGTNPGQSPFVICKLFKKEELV
Another assay addresses T2, GST-ANAC019 NAC domain (UniProt Q9C932).
T2 sequence: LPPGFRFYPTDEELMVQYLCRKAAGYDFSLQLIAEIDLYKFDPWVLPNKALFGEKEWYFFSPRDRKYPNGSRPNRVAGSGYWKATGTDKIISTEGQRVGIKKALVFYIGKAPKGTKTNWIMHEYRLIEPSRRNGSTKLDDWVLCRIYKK

The target in another assay is T3, GST-ANAC055(1-171) (UniProt Q9LDY8).
T3 sequence: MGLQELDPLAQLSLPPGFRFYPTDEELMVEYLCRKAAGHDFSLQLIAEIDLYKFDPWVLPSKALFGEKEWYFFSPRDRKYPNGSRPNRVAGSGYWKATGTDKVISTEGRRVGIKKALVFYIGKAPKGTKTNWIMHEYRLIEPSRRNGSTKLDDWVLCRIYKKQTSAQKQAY

The next assay has as its target T4, GST-ATAF1 NAC domain (UniProt Q39013).
T4 sequence: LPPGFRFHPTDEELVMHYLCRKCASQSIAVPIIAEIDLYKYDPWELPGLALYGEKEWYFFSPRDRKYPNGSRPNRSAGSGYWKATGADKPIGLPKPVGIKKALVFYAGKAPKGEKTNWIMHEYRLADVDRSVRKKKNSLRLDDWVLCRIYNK

Assay [1] deals with T5, GST-ANAC092(1-285) full length (UniProt Q9FKA0).
T5 sequence: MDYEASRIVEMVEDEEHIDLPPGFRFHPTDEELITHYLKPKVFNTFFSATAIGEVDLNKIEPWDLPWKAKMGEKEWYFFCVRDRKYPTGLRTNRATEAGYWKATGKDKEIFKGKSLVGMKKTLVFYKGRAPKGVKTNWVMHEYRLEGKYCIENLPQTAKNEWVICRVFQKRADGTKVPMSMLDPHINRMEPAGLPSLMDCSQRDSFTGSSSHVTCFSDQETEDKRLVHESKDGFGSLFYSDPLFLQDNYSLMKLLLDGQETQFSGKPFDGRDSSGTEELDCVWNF

The next assay concerns the target T6, GST-NAP(1-166) (UniProt O49255).
T6 sequence: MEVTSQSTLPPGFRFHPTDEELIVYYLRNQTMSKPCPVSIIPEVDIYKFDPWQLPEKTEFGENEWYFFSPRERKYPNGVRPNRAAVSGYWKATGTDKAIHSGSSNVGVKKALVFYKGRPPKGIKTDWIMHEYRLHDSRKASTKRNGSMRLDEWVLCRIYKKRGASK

The next assay concerns the target T7, GST-NST2(1-184) (UniProt Q9M274).
T7 sequence: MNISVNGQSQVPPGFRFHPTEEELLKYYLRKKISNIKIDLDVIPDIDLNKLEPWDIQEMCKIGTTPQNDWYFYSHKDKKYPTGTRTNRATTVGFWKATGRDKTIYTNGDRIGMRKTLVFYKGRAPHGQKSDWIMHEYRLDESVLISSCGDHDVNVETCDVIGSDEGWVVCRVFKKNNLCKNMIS

Another assay has as its target T8, GST-NTL8 NAC domain (UniProt Q9XIN7).
T8 sequence: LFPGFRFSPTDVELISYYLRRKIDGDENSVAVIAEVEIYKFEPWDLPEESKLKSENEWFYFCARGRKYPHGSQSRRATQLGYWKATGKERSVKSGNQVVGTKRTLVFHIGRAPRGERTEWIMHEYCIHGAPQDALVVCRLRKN

In the next assay the target is T9, GST-SND1(1-203) (UniProt Q9LPI7).
T9 sequence: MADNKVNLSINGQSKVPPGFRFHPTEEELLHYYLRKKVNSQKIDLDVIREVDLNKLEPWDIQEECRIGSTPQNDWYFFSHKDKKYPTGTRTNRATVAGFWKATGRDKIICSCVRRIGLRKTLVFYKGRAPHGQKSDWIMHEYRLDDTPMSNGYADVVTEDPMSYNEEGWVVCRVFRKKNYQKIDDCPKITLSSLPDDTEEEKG

In a further assay the target is T10, GST-VND3 NAC domain (UniProt Q9FH59).
T10 sequence: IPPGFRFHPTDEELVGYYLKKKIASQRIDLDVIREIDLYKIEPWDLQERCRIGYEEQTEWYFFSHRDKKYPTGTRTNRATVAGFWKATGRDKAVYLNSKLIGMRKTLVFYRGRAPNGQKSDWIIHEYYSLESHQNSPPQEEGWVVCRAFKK

Another assay addresses T11, GST-VND7 NAC domain (UniProt Q9C8W9).
T11 sequence: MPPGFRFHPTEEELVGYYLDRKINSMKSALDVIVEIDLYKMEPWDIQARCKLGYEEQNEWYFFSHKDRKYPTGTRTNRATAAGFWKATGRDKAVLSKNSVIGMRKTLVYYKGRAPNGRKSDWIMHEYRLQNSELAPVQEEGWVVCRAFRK

Assay [2] has as its target T12, GST-VOZ2 (Arabidopsis thaliana) (UniProt Q9SLB9).
T12 sequence: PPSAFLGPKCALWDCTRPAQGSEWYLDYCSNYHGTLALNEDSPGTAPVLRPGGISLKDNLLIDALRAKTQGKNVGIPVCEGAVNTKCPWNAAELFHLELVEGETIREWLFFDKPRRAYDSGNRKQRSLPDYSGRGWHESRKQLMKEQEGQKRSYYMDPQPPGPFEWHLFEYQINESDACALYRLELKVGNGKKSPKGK

Another assay has as its target GST-WRKY1(266-371) (UniProt Q9SI37).

As to CAAGGTCA, the binding signal was -0.1 E-score in the assay with GST-ANAC092(1-176); -0.0365 E-score in the assay with GST-NTL6(1-168); -0.0405 E-score in the assay with GST-ANAC019 NAC domain; -0.0913 E-score with GST-ANAC055(1-171); -0.165 E-score in the assay with GST-ATAF1 NAC domain; -0.0623 E-score in [1]. Also, the binding signal with GST-NAP(1-166) is -0.0376 E-score; with GST-NST2(1-184), -0.0763 E-score; with GST-NTL8 NAC domain, -0.0104 E-score; with GST-SND1(1-203), -0.0332 E-score; with GST-VND3 NAC domain, -0.0954 E-score; in the assay with GST-VND7 NAC domain, -0.19 E-score. In addition, the binding signal in [2] was -0.0846 E-score; in the assay with GST-WRKY1(266-371), 0.425 E-score.
On to GACTGACC, for which the binding signal was -0.111 E-score in the assay with GST-ANAC092(1-176); -0.11 E-score with GST-NTL6(1-168); -0.123 E-score in the assay with GST-ANAC019 NAC domain; -0.249 E-score with GST-ANAC055(1-171); -0.196 E-score with GST-ATAF1 NAC domain; -0.0429 E-score in assay [1]. The binding signal with GST-NAP(1-166) was -0.143 E-score; with GST-NST2(1-184), -0.105 E-score; with GST-NTL8 NAC domain, -0.000955 E-score; with GST-SND1(1-203), -0.0453 E-score; with GST-VND3 NAC domain it was -0.256 E-score; with GST-VND7 NAC domain, -0.177 E-score. Further, the binding signal was -0.167 E-score in [2] and 0.42 E-score in the assay with GST-WRKY1(266-371).
On to CGGTCGTC, for which the binding signal with GST-ANAC092(1-176) was -0.194 E-score; with GST-NTL6(1-168), -0.275 E-score; in the assay with GST-ANAC019 NAC domain, -0.231 E-score; in the assay with GST-ANAC055(1-171), -0.315 E-score; in the assay with GST-ATAF1 NAC domain it was -0.244 E-score; in assay [1], -0.235 E-score. The binding signal in the assay with GST-NAP(1-166) was -0.0668 E-score; with GST-NST2(1-184) it was -0.227 E-score; with GST-NTL8 NAC domain, -0.119 E-score; with GST-SND1(1-203), -0.0845 E-score; with GST-VND3 NAC domain, -0.158 E-score; with GST-VND7 NAC domain, -0.093 E-score. Besides, the binding signal in assay [2] was -0.116 E-score; in the assay with GST-WRKY1(266-371), 0.41 E-score.
Turning to GGGGGGAA, the binding signal is 0.0206 E-score with GST-ANAC092(1-176); -0.135 E-score in the assay with GST-NTL6(1-168); 0.0481 E-score with GST-ANAC019 NAC domain; -0.207 E-score in the assay with GST-ANAC055(1-171); -0.107 E-score with GST-ATAF1 NAC domain; -0.0709 E-score in assay [1]. Further, the binding signal was -0.231 E-score in the assay with GST-NAP(1-166); -0.285 E-score with GST-NST2(1-184); -0.0629 E-score with GST-SND1(1-203); -0.212 E-score with GST-VND3 NAC domain; 0.0325 E-score in the assay with GST-VND7 NAC domain; -0.127 E-score in assay [2]. The same sequence gave a binding signal with GST-WRKY1(266-371) of -0.125 E-score.
With GCGGTCAA, the binding signal was -0.141 E-score with GST-ANAC092(1-176); -0.125 E-score with GST-NTL6(1-168); -0.101 E-score in the assay with GST-ANAC019 NAC domain; -0.179 E-score with GST-ANAC055(1-171); -0.176 E-score in the assay with GST-ATAF1 NAC domain; -0.0898 E-score in [1]. Also, the binding signal with GST-NAP(1-166) was -0.0808 E-score; with GST-NST2(1-184) it was -0.081 E-score; with GST-NTL8 NAC domain it was -0.0596 E-score; in the assay with GST-SND1(1-203) it was -0.116 E-score; with GST-VND3 NAC domain, -0.16 E-score; with GST-VND7 NAC domain it was -0.191 E-score. Further, the binding signal in assay [2] worked out at 0.0293 E-score; in the assay with GST-WRKY1(266-371), 0.487 E-score.
For CAGGTCAG, the binding signal with GST-ANAC092(1-176) is -0.0831 E-score; in the assay with GST-NTL6(1-168) it was -0.143 E-score; with GST-ANAC019 NAC domain, -0.0327 E-score; with GST-ANAC055(1-171), -0.189 E-score; with GST-ATAF1 NAC domain, -0.141 E-score; in assay [1], -0.115 E-score. Besides, the binding signal was -0.0572 E-score with GST-NAP(1-166); -0.132 E-score with GST-NST2(1-184); 0.0212 E-score with GST-NTL8 NAC domain; -0.0688 E-score in the assay with GST-SND1(1-203); -0.059 E-score in the assay with GST-VND3 NAC domain; -0.0886 E-score in the assay with GST-VND7 NAC domain. Besides, the binding signal in [2] is 0.00107 E-score; in the assay with GST-WRKY1(266-371), 0.418 E-score.

The values above are taken from paper PMC4081100.
